# Experimental data published in PubChem BioAssay AID2107 (National Center for Advancing Translational Sciences (NCATS), 2009).
# The campaign covered roughly 240,000 compounds. About 20 (0.008%) were called active. The shares of active, inactive and inconclusive entries below differ from those in the screen. Calls follow the shape of the dose curve; as a rule, active = well fitted inhibition curve with a large enough effect; inconclusive = small, poorly fitted or top-dose-only effect, or effect the other way; inactive = flat fitted curve, though single readings scatter. No potency is given beside an inconclusive call; the fits are too rough.
# Target: Alpha-galactosidase A (Homo sapiens) (UniProt P06280)
# Sequence of UniProt P06280 (P06280 whole entry, looked up): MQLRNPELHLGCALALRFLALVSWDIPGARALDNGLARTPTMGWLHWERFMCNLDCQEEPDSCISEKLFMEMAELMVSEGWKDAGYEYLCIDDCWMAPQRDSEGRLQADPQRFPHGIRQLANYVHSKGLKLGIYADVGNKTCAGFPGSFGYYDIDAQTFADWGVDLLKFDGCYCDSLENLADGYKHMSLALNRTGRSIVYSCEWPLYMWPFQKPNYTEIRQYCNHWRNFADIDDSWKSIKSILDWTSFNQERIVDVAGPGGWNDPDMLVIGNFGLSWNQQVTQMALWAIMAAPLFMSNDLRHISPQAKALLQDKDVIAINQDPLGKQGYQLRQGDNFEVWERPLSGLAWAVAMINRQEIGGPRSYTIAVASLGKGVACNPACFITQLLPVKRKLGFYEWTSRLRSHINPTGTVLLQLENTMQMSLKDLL
# Assay: qHTS Assay for Inhibitors and Activators of Human alpha-Galactosidase From Spleen Homogenate
# Settings: 4MU-alpha-Gal fluorescence, 40 min; series mostly up to 80 µM
# In short: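 Fluorogenic readout (Ex 365/Em 440 nm) of 4-methylumbelliferone released from 1 mM 4-MU-alpha-galactoside by spleen homogenate, 40 min at 37C, pH 5.0. Data normalized to no-enzyme and enzyme controls; Hill-equation AC50 from compound titrations.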
# Potency is read from the fitted curve at half-maximal effect; tags tell the direction and shape of the fitted curve.
row,SMILES,Potency
1,COc1ccccc1Oc1c(C)oc2c(CN(C)C)c(O)ccc2c1=O,"inconclusive [activator, single point]"
2,O=C1OCCN1C(=O)[C@H]1[C@H](c2ccc(Cl)cc2)C(c2cccc(Cl)c2)=NN1c1ccccc1,"inconclusive [activator, single point]"
3,O=C(O)C1C2C=CC(O2)C1C(=O)Nc1ccc(S(=O)(=O)Nc2ccccc2)cc1 (configuration not stated),"inconclusive [inhibitor, single point]"
4,COc1ccc(N2C3=C(C(=O)CC(C)(C)C3)C(c3cnn(C)c3)C3=C2CC(C)(C)CC3=O)cc1,"inconclusive [activator, partial curve]"
5,Cc1oc2cc(O)ccc2c(=O)c1Oc1ccccc1,"inconclusive [activator, partial curve]"
6,CCC(C)N1C(=O)S/C(=C/c2ccc(Sc3nc4ccccc4[nH]3)o2)C1=O (configuration not stated),"inconclusive [activator, single point]"
7,CCNC(=O)[C@H]1O[C@@H](n2cnc3c(N)nc(NCCc4ccc(CCC(=O)O)cc4)nc32)[C@H](O)[C@H]1O,inactive
8,O=C1Nc2ccc(S(=O)(=O)N3CCOCC3)c3cccc1c23,"inconclusive [activator, single point]"
9,CC(=O)Nc1cc(OC(C)=O)c2nonc2c1OC(C)=O,inactive
10,COc1ccc(-c2ccc(C#N)c(SCC(=O)OCc3ccccc3)n2)cc1OC,"inconclusive [activator, partial curve]"
11,O=C(NCCc1c[nH]c2ccccc12)c1cncc(Br)c1,"inconclusive [inhibitor, single point]"
12,CCOC(=O)N1CCN(C(=O)COc2ccc3c(c2)C(=O)CC2(CCN(C(C)=O)CC2)O3)CC1,"inconclusive [activator, partial curve]"
13,COc1ccc(C2C(C#N)=C(C)NC3=C2C(=O)CC(C)(C)C3)cc1 (configuration not stated),"inconclusive [activator, single point]"
14,CN(C)C(=O)COc1ccc2cc(-c3ccccc3)c(=O)oc2c1,"inconclusive [activator, full curve]"
15,Cn1c(=O)c(-c2ccc(Cl)cc2)nc2cnc(Oc3cccc(Cl)c3)nc21,"inconclusive [inhibitor, single point]"
16,O=c1cc(-c2ccc(F)cc2F)[nH]c2ccc(F)cc12,inactive
17,COc1cc(C(=O)Nc2cccc(-c3cn4cccnc4n3)c2)cc(OC)c1OC,"inconclusive [activator, partial curve]"
18,Oc1oc(-c2ccccc2)nc1C=Nc1ccccc1,inactive
19,CCC(=O)Nc1c(S(=O)(=O)c2ccccc2)c2nc3ccccc3nc2n1C(C)c1ccccc1 (configuration not stated),"inconclusive [activator, partial curve]"
20,CCCCN(CCCC)S(=O)(=O)c1ccc2oc(C(=O)N3CCOCC3)c(C)c2c1,"inconclusive [activator, single point]"
21,CCOC(=O)c1c(C)[nH]c(C)c1C(=O)COC(=O)/C=C/c1ccc(OC(F)F)cc1,"inconclusive [inhibitor, single point]"
22,O=C1CN(C(=O)COC(=O)c2ccccc2NCc2ccco2)c2ccccc2N1,"inconclusive [activator, partial curve]"
23,COC(=O)c1ccc(OCc2nc(N)nc(N3CCOCC3)n2)cc1,"inconclusive [inhibitor, single point]"

row,SMILES,Potency
1,COCCCn1cnc2oc3nc4ccccc4nc3c2c1=O,"inconclusive [activator, partial curve]"
2,COC(=O)c1ccccc1NC(=O)Nc1cc(C)ccn1,"inconclusive [activator, single point]"
3,CC(C)C1N=C2c3ccccc3N=C(SCC(=O)NCCc3ccc(S(N)(=O)=O)cc3)N2C1=O (configuration not stated),"inconclusive [activator, partial curve]"
4,c1ccc(-c2ccc(-c3ccccn3)s2)nc1,"inconclusive [activator, partial curve]"
5,O=C(Nc1cccc(-c2cn3cccnc3n2)c1)c1ccc(Br)o1,"inconclusive [activator, partial curve]"
6,N#Cc1nc(-c2cccc3ccccc23)oc1NCCN1CCCCC1,"inconclusive [activator, single point]"
7,COC(=O)c1nnc(C(=O)N(C)Cc2ccccc2)c2[nH]c3ccccc3c12,inactive
8,CCOC(=O)c1ccc[n+](CC(=O)c2ccccc2)c1,"inconclusive [inhibitor, single point]"
9,O=C(c1cc(-c2cccc(O)c2)on1)N1CCCCC1,inactive
10,CNC(=S)N(Cc1cc2cc(OC)c(OC)cc2[nH]c1=O)C1CCCC1,inactive
11,CC1=C(C#N)C(c2cccnc2)C2=C(CCCC2=O)N1 (configuration not stated),"inconclusive [activator, partial curve]"
12,CCOc1ccc(C2C(C(=O)OC)=CN(CCOC)C=C2C(=O)OC)cc1,"inconclusive [activator, partial curve]"
13,COc1ccc2nc3c(cc2c1)Cn1c-3nc2ccccc2c1=O,"inconclusive [activator, partial curve]"
14,Nc1ccc(-c2nnc(-c3ccc(-c4ccccc4)cc3)o2)cc1,"inconclusive [activator, partial curve]"
15,CCNc1ncc2nc(-c3ccccc3)c(=O)n(Cc3cccc(OC)c3)c2n1,"inconclusive [activator, full curve, poor fit]"
16,CCOC(=O)c1c(C)n(-c2ccc(OC)cc2)c2ccc(O)c(CN(C)C)c12,inactive
17,COCCNC(=O)/C(C#N)=C/c1c(N2CC(C)OC(C)C2)nc2ccccn2c1=O (configuration not stated),"inconclusive [activator, partial curve]"
18,CN1CCC(=O)N(C(CSc2ccc(Br)cc2)Cc2ccccc2)CC1 (configuration not stated),inactive
19,Cc1cc(C)c(C#N)c(SCc2nc3ccccc3[nH]2)n1,"inconclusive [activator, partial curve]"
20,COCCNc1nc(-n2nc(C)cc2C)nc2sc3c(c12)CCCC3,"inconclusive [activator, partial curve]"
21,CCOc1ccc2nc(C)cc(Nc3ccc(N4CCOCC4)cc3)c2c1,inactive
22,CCCCCNC(=O)c1ccc2c(=O)n(CCCN3CCCC3=O)c(=S)[nH]c2c1,inactive
23,Cc1ccc2c(c1)N(CCCC(=O)NCCC1=CCCCC1)C(=O)CO2,"inconclusive [activator, single point]"

row,SMILES,Potency
1,NC(N)=NCCC[C@H](N)C(=O)N1CCC[C@H]1C(=O)N1CCC[C@H]1C(=O)NCC(=O)N[C@@H](Cc1ccccc1)C(=O)N[C@@H](CO)C(=O)N1CCC[C@H]1C(=O)N[C@@H](Cc1ccccc1)C(=O)O,inactive
2,Cc1nnc(-c2cccc(Br)c2)c2cn(-c3ccccc3Cl)nc12,"inconclusive [inhibitor, full curve, poor fit]"
3,COc1cccc(C2C(C#N)=C(N)Oc3cc(N)ccc32)c1OC (configuration not stated),"inconclusive [activator, single point]"
4,O=C(CC1S/C(=N/N=C/c2ccco2)NC1=O)Nc1cccc(Cl)c1Cl (configuration not stated),inactive
5,O=C(O)c1cc(-c2ccccc2)nc2nc(N3CCCCC3)sc12,"inconclusive [activator, partial curve]"
6,Cc1nc(N2CCN(C)CC2)[nH]c(=O)c1Cc1cccc2ccccc12,"inconclusive [activator, single point]"
7,COc1cc2cc(C(=O)N3CCN(Cc4ccc5c(c4)OCO5)CC3)c(=O)oc2cc1OC,"inconclusive [activator, partial curve]"
8,COc1cc(C(=O)/C=C/Nc2ccc(NC(C)=O)cc2)cc(OC)c1OC,"inconclusive [inhibitor, single point]"
9,Cc1oc(-c2nc3ccccc3n2C)cc1C(=O)c1ccccc1,inactive
10,COC(=O)c1ccc(-c2ncc(-c3cccc4ccccc34)o2)cc1,"inconclusive [activator, partial curve]"
11,COCCn1c(SCC(=O)Nc2nnc(C)s2)nnc1-c1cc2ccccc2cc1O,"inconclusive [inhibitor, single point]"
12,O=C(CNC(=O)c1ccc(Br)cc1)NCCc1nc2ccccc2[nH]1,inactive
13,Cc1cc(Cl)n2c(nc3ccccc32)c1C#N,"inconclusive [activator, single point]"
14,COc1ccc(C(C)=O)cc1COc1cc(C)c(Cl)c(C)c1,inactive
15,COc1ccc(C2=NN(c3ccccc3)C(c3cn(CCC(=O)O)nc3-c3ccccc3)C2)cc1 (configuration not stated),"inconclusive [activator, partial curve]"
16,O=c1c([N+](=O)[O-])cccn1Cc1ccc(F)cc1Cl,inactive
17,Cc1ccc(C(=O)CCNc2cccc(Br)c2)o1,inactive
18,CCC(O)CNc1nc(SC)nc2sc3c(c12)CCN(C)C3 (configuration not stated),"inconclusive [activator, single point]"
19,COC(=O)c1ccc(C(/C=C/[C@@H](C)C(=O)NCCN2CCCC2)NC(=O)OCc2ccccc2)cc1 (some centres not stated),inactive
20,N#Cc1c(C(F)(F)F)cc(-c2cccs2)nc1SCc1cccnc1,"inconclusive [activator, single point]"
21,Cc1nc(S/C(=C/c2ccc(-c3cc(Cl)ccc3C)o2)C(=O)O)n[nH]1,"inconclusive [inhibitor, single point]"
